Out of some 310,000 compounds screened, about 14,000 (4.5%) showed an effect of 50% or more. Effects have a minus sign here. This is one part of the list.
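Note: peak tail current of the secondary pulse compared with the same well before compound.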

For the test, the target named is human ether-à-go-go-related gene (hERG) potassium channel (human, UniProt Q12809). Kind of test: primary screen, population patch clamp on CHO cells stably expressing hERG.
Sequence of human ether-à-go-go-related gene (hERG) potassium channel (Q12809 whole entry, looked up): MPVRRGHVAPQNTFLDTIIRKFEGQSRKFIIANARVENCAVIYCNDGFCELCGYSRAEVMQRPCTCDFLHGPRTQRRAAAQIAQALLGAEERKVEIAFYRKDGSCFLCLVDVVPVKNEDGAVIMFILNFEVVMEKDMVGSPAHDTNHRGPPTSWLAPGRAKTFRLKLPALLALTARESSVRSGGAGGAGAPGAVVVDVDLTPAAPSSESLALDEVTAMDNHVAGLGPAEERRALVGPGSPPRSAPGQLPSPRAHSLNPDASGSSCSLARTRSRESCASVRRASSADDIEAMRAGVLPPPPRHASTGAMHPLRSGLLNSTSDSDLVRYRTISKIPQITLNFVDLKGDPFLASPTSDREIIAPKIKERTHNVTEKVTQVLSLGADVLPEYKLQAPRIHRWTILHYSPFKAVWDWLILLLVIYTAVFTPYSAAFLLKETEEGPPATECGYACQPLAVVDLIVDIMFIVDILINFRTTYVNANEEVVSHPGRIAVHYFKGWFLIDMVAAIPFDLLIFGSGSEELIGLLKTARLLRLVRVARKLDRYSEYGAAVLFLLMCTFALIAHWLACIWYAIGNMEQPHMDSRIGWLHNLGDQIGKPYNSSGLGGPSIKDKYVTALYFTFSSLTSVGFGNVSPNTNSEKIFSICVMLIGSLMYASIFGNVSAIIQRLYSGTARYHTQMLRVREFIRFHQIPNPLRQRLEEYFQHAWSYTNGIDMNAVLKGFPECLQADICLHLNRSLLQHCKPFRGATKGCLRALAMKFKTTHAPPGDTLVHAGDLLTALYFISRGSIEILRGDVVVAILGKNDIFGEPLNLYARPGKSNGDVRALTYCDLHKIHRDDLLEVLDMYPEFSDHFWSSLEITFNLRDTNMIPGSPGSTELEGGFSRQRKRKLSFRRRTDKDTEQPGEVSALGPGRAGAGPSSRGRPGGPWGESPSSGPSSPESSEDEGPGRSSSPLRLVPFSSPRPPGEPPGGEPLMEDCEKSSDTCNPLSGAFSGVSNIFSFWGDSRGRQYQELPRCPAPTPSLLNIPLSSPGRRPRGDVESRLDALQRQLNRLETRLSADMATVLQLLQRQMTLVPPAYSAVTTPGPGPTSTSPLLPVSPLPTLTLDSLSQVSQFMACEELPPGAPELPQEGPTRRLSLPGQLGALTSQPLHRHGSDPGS
For `Nc1c(C(=O)NCCc2ccccc2)sc2nc(N3CCOCC3)c3c(c12)CCCC3`, the “hERG current change (%, negative = inhibition) at 10uM” value is recorded as 9.32%.
Consider `Cc1ccccc1NS(=O)(=O)c1cccc2nsnc12`, for which the “hERG current change (%, negative = inhibition) at 10uM” value is 19.4%.
The figure for `O=C1c2ccccc2C(=O)N1CNc1ccccc1` is 18.7%; for `Cc1sc2ncnc(N[C@@H](Cc3ccccc3)C(=O)O)c2c1C` it is 14%.
Under `Clc1ccccc1Cn1nc(-c2ccccc2)nc1-c1ccccc1` stands -0.912%; under `NC(=O)c1ccc(N=C2C(=O)Nc3ccc([N+](=O)[O-])cc32)cc1`, 18.6%; under `Cc1ccccc1CSCCNC(=O)Nc1ccccc1`, 1.64%.
On to `CCCNC(=O)N1C2CCC1CC(O)(c1cccnc1)C2` (stereo not shown), for which the “hERG current change (%, negative = inhibition) at 10uM” value is reported as -1.82%.
`COc1ccc(Cl)cc1NC(=O)c1ccc2c(SCC(=O)O)c3c(nc2c1)CCCC3`: the “hERG current change (%, negative = inhibition) at 10uM” value was found to be 34.5%.
Regarding `Cc1cc(NC(=O)CSc2nc(-c3cccnc3)ccc2C#N)no1`, the “hERG current change (%, negative = inhibition) at 10uM” value is -2.99%.
The figure for `O=C(O)c1ccc(-c2noc(-c3ccc(F)cc3)n2)cc1` is 14.3%; for `O=C(NN1C(=O)c2ccccc2C1=O)C1C2CCCCC21` (stereo not shown) it is 7.41%.
Under `CC(=O)Nc1ccc(SCC(=O)O)cc1` stands 12.7%; under `COc1ccc(-n2cc(-c3ccc(OC)c(OC)c3)[nH]c2=S)cc1`, 6.1%; under `COc1ccc2c(C)nc(N/C(N)=N/S(=O)(=O)c3ccc(C)cc3)nc2c1`, 3.1%.
Take `O=C(NCC1CCCO1)C(=O)c1c[nH]c2ccccc12` (stereo not shown): the “hERG current change (%, negative = inhibition) at 10uM” value is reported as 0.898%.
As to `N=C1C(c2nc3ccccc3s2)=C(O)CN1NC(=O)c1ccccc1[N+](=O)[O-]`, the “hERG current change (%, negative = inhibition) at 10uM” value is 13.3%.
As for `COc1ccccc1NC(=O)N1CCCC1C(=O)Nc1nnc(C(C)C)s1` (stereo not shown), the “hERG current change (%, negative = inhibition) at 10uM” value was -7.02%.
Under `CCCCc1c(O)nc(SCC(=O)c2ccccc2)n(-c2ccccc2OC)c1=O` stands 9.63%; under `COc1ccc(NS(=O)(=O)c2cc(NC(=O)c3ccc(=O)[nH]n3)ccc2N2CCOCC2)cc1`, -23.2%; under `Cc1ccc(-c2ccc(=O)n(CC(=O)NCc3ccco3)n2)cc1`, -10%.
The figure for `COc1ccc(C(=O)C2CCCN(Cc3nc4ccccc4nc3C)C2)cc1OC` (stereo not shown) is -84.9%.
The figure for `O=C(Nc1ccccc1)C1=C(O)CC(c2ccco2)CC1=Nc1ccccc1` (stereo not shown) is 8.82%; for `COCCn1c(Cc2ccccc2)nnc1SCC(=O)NC(C)C` it is -2.94%.
As for `CC(c1ccco1)N(C(=O)c1ccccc1F)c1ccccn1` (stereo not shown), the “hERG current change (%, negative = inhibition) at 10uM” value was 10.1%.
The figure for `CS(=O)(=O)N(CC(=O)N1CCCCCC1)c1cc(Cl)ccc1Cl` is -2.13%; for `COc1ccc(C(=O)c2cnc[nH]2)cc1` it is 13.7%.
The figure for `COC(=O)c1ccc(Cl)cc1N(Cc1c(F)cccc1Cl)S(C)(=O)=O` is -19.8%; for `CCOC(=O)c1sc(NS(=O)(=O)c2ccc(C)cc2)nc1C` it is -2.14%; for `COc1cc2c(cc1OC)C(C)N(C(=O)C(NC(=O)c1ccccc1)C(C)C)CC2` (stereo not shown) it is 7.1%.
In the case of `CN(Cc1ccccc1)C1CC(=O)N(c2ccc(C(=O)O)cc2)C1=O` (stereo not shown), the “hERG current change (%, negative = inhibition) at 10uM” value came out at 3.13%.
The figure for `CCOc1ccc(C2C(C(=O)c3cccs3)=C(O)C(=O)N2CCN2CCOCC2)cc1` (stereo not shown) is -1.52%; for `Cc1cc(CNC(=O)[C@H](C)[C@@H]2C[C@@]2(C)[C@@H](NC(=O)OCc2ccccc2)c2ccccc2)nn1C` it is -22.5%.
The figure for `O=C(O)c1ccc(N/N=C/c2cc(Br)cs2)cc1` is 24.3%.
The figure for `Cc1nc(=S)n(-c2ccccc2)[nH]1` is 22.9%; for `CCOC(=O)c1c(NC(=O)C2CCCO2)sc(C)c1C` (stereo not shown) it is 4.6%.
As for `C[C@H](NC(=O)c1cc2cc(Cl)ccc2n1C)C(=O)N[C@@H](Cc1ccccc1)C(=O)O`, the “hERG current change (%, negative = inhibition) at 10uM” value was 8.99%.
The figure for `CCCc1nn2c(=O)cc(O)nc2s1` is 14.2%; for `CNC(=O)c1cccn1-c1ccsc1C(=O)OC` it is 7.33%.
Take `COc1cccc(N2CCN(C(=O)c3cc(C)oc3C)CC2)c1`: the “hERG current change (%, negative = inhibition) at 10uM” value is 6.8%.
`Cc1ccc(N2C(=O)/C(=C\c3ccc(C(C)C)cc3)N=C2SC2CCOC2=O)cc1` (stereo not shown): the “hERG current change (%, negative = inhibition) at 10uM” value came to 14.2%.
As for `CCn1nc(NC(=O)c2ccccc2)c2cc3cccc(C)c3nc21`, the “hERG current change (%, negative = inhibition) at 10uM” value worked out at 11.9%.
Under `COc1ccc(OC)c(NC(=O)c2ccc(CSc3nnc(C)s3)cc2)c1` stands 3.32%; under `O=C(c1ccccc1[N+](=O)[O-])N1CCc2ccccc2C1`, 9.51%; under `O=c1c2ccccc2c(C=Nc2ccccc2O)c(O)n1-c1nccs1`, 3.45%.
As to `O=C(COc1ccccc1)OCc1cc(-c2ccco2)on1`, the “hERG current change (%, negative = inhibition) at 10uM” value is given as 5.99%.
Turning to `O=C(Cc1ccccc1)N1CCN(c2ccccc2F)CC1`, the “hERG current change (%, negative = inhibition) at 10uM” value was determined as 18.1%.
Under `C=CCOC(=O)C1=C(C)OC(N)=C(C#N)[C@@]12C(=O)N(CC(N)=O)c1ccccc12` stands -9.98%; under `O=[N+]([O-])c1ccc(Nc2nc(Cl)nc(NCCO)n2)cc1`, 3.63%; under `CCn1nc(C)c(Br)c1-c1nc(CS(=O)(=O)c2ccsc2)no1`, -22.6%.
Turning to `O=C(NCc1cccnc1)c1cc(-c2ccc(Cl)cc2)oc1C(F)(F)F`, the “hERG current change (%, negative = inhibition) at 10uM” value was -25%.
Under `Cc1nc2cc(NC(=O)CCS(=O)(=O)c3ccccc3)ccc2s1` stands 5.59%; under `CCOc1cc(/C=N/Nc2ncnc(Cl)c2N)ccc1O`, 2.48%.
As for `Cc1ccc(-n2ncc(C#N)c2N)cc1`, the “hERG current change (%, negative = inhibition) at 10uM” value was -14.2%.
For the compound `CN(C(=O)COC(=O)CN1C(=O)C2CC=CCC2C1=O)c1ccccc1` (stereo not shown), the “hERG current change (%, negative = inhibition) at 10uM” value was found to be 11.4%.
The figure for `CCN(CC)c1ccc(/C=N/NC(=O)CNC(=O)C2COc3ccccc3O2)c(O)c1` (stereo not shown) is 0.388%; for `COC(=O)c1cc2c(N)c(C(=O)c3ccc(Cl)cc3)sc2nc1C(OC)OC` it is -69.6%.
The figure for `O=[N+]([O-])c1cc(Cl)c(Cl)c(Cl)c1Cl` is 23.9%.

Source of the values: paper PMC4336329 (PLoS ONE, 2015).
